The values below come from PubChem BioAssay AID1508624 (National Center for Advancing Translational Sciences (NCATS), 2021).

Among all 48,000 compounds or so, about 120 (0.25%) were called active. Inconclusive results (about 4%) are left out. The call rests on the fitted dose curve; in most records, active means well fitted activation curve with a large enough effect; inconclusive means small, poorly fitted or top-dose-only effect, or another doubt; inactive means no such curve, though single readings can be large or run the other way. This is one part of the list.

A short description of the assay: Primary qHTS for Identification of Small Molecule Activators of Huntingtin-Antisense Promoter Activity. Further: nearly all actives have a fitted effect of over 55% in size. The following applies: HEK293 HTT-AS promoter firefly luciferase reporter, 24 h; series mostly up to 57.5 µM; activity change, positive = activation: at the top concentration. The gist of the method:
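Quantitative HTS used concentration series of up to 57.5 uM final on HEK293 luciferase reporter cells, 24 h at 37 degrees C. Readout was Dual-Glo firefly luminescence.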
Take `Cc1ccc(NC(=O)C2CCN(S(=O)(=O)c3cccc4nsnc34)CC2)cc1F`: the “activity change, positive = activation” value is inactive: -16%. In the case of `Cc1noc(C)c1S(=O)(=O)N(CC(=O)Nc1ccc(F)cc1F)c1ccc(C(C)C)cc1`, the “activity change, positive = activation” value was inactive: -39.4%. In the case of `COc1cccc(CNC(=O)Cn2ncn3nc(-c4cccs4)cc3c2=O)c1`, the “activity change, positive = activation” value is inactive: -3.17%. For the compound `Oc1c(C(Nc2ccccn2)c2ccccc2F)ccc2cccnc12` (stereo unspecified), the “activity change, positive = activation” value was inactive: -30.4%. The value for `COc1ccc(Cn2ccc3nc(C)c(C(=O)Nc4cccc(SC)c4)cc3c2=O)cc1` was inactive: -14.6%; that for `COc1ccc(NC(=O)C(=O)NCCc2csc3nc(-c4ccccc4F)nn23)cc1OC` was inactive: 2.9%. In the case of `COCCNC(=O)Cn1nc(-c2ccccc2)c2ccccc2c1=O`, the “activity change, positive = activation” value was inactive: 0%. The value for `COc1cc(OC)c(C2CC(=O)Nc3ccc4ccccc4c32)cc1OC` (stereo unspecified) was inactive: -15.2%; that for `Nc1nc(N)c(N=O)c(OCC2CCCCC2)n1` was inactive: 7.01%; that for `COC(=O)c1ccccc1NC(=O)c1nc(-c2ccc(C)cc2)n2c1CCCCC2` was inactive: -5.23%. As to `CC(NC(=O)Cn1c(=O)oc2cc(S(=O)(=O)N3CCCCCC3)ccc21)c1ccccc1` (stereo unspecified), the “activity change, positive = activation” value is inactive: -2.58%. Take `CC(NC(=O)c1cc2c(=O)n3ccccc3nc2n(C(C)C)c1=N)c1ccccc1` (stereo unspecified): the “activity change, positive = activation” value was inactive: 2.59%. In the case of `Cc1cccc(OC(=O)CSc2nnc(-c3ccc4c(c3)OCO4)o2)c1C`, the “activity change, positive = activation” value is inactive: -32.1%.

On to `Cc1ccc(C2=NN(CC(=O)NCCc3ccccc3)C(=O)CC2)cc1`, for which the “activity change, positive = activation” value is inactive: -1.85%. For the compound `COc1cccc(Cn2c(=O)n(CC3CCC(C(=O)NC(C)C)CC3)c(=O)c3sccc32)c1` (stereo unspecified), the “activity change, positive = activation” value is inactive: -11.3%.

Consider `Cc1cn(C)c(CC(=O)NCc2ccc(Cl)cc2)c1C(=O)O`, for which the “activity change, positive = activation” value is inactive: -10.3%. As for `Cc1ccc(CCNS(=O)(=O)c2ccc3c(c2)C(C(C)C)C(=O)N3)cc1` (stereo unspecified), the “activity change, positive = activation” value was inactive: -16.9%. As for `COc1cc(NC(=O)CN2C(=O)CCc3cc(Br)ccc32)cc(OC)c1OC`, the figure is inactive: -23.9%; as for `CC(=O)N1c2ccccc2C(=O)C1N1CCN(c2cccc(Cl)c2)CC1` (stereo unspecified), inactive: -33.4%; as for `COc1ccc(Cl)cc1NC(=O)CSC1=Nc2ccccc2C2=NC(CCC(=O)NCc3ccco3)C(=O)N12` (stereo unspecified), inactive: -15.9%.

With `CCOC(=O)c1c(NC(=O)c2cc(=O)c3cc(C)ccc3o2)sc2c1CCCC2`, the activity change, positive = activation was inactive: 11.2% [at 11.5 µM, percent change from vehicle, -100% = no light]. As for `Cc1ccc(Cn2c(CCNC(=O)c3cccc(C)c3)nc3ccccc32)cc1`, the figure is inactive: -33.9%; as for `Cc1cccc(NC(=O)CN2C(=O)C3(SCC(=O)N3c3ccccc3)c3ccccc32)c1` (stereo unspecified), inactive: -33.2%; as for `Cc1ccc(Cn2c(C(=O)O)c(CNCc3ccc(C)o3)c3ccc(C)cc32)cc1`, inactive: -26.2%.

On to `Cc1ccc(S(=O)(=O)N2CCN(Cc3ccccc3Cl)CC2)cc1`, for which the “activity change, positive = activation” value was inactive: -22.6%. For `NC(=O)c1cnccn1`, the activity change, positive = activation result is “inactive”. `CC(C)Cn1cc(NC(=O)NCc2cccc(Cl)c2)c2ccccc2c1=O`: the “activity change, positive = activation” value is inactive: -14.6%.

For `COc1ccc(NC(=O)c2cccc(N3CCCS3(=O)=O)c2)c(OC)c1`, the “activity change, positive = activation” value was inactive: 11.8%. The value for `O=C(NCCC1=CCCCC1)c1ccc2c(c1)sc1nc(-c3ccc(F)cc3)cn12` was inactive: 19.2%.

With `O=C(NCCc1ccccc1)c1ccc2c(c1)N(Cc1ccc(F)cc1)C(=O)CS2`, the “activity change, positive = activation” value was inactive: -51.2%. `Cc1ccc2oc(C(=O)Nc3sc4c(c3C(=O)NCC3CCCO3)CCC4)cc(=O)c2c1` (stereo unspecified): the activity change, positive = activation is inactive: 12.5% [at 11.5 µM, percent change from vehicle, -100% = no light]. As for `CCN(CC)c1ccc(NC(=O)CN2CCN(CC(=O)Nc3ccc(Cl)cc3)CC2)cc1`, the figure is inactive: -12.2%. With `COc1cccc(CNC(=O)Cn2ncc3c(=O)oc4ccccc4c32)c1`, the “activity change, positive = activation” value is inactive: -16.7%.

On to `Cc1ccc(CSc2cn(CC(=O)N3CCCCCC3)c3ccccc23)cc1`, for which the “activity change, positive = activation” value is inactive: -0.854%. The value for `O=S(=O)(NCc1ccc(F)cc1)c1ccc(N2CCCCS2(=O)=O)cc1` was inactive: -29.3%; that for `CCCN(Cc1cc2cccc(C)c2[nH]c1=O)C(=O)c1cccc(Cl)c1` was inactive: -4.72%. The value for `CCNC(=O)[C@@H]1CCCN1C(=O)[C@H](CCCN=C(N)N)NC(=O)[C@H](CC(C)C)NC(=O)CNC(=O)[C@H](Cc1ccc(O)cc1)NC(=O)[C@H](CO)NC(=O)[C@H](Cc1c[nH]c2ccccc12)NC(=O)[C@H](Cc1cnc[nH]1)NC(=O)[C@@H]1CCC(=O)N1` was inactive: -3.14%; that for `CCOc1ccc(C2c3c(-c4cc(C)ccc4O)n[nH]c3C(=O)N2Cc2cccnc2)cc1OCC` (stereo unspecified) was inactive: -21.1%. As to `COc1ccccc1NC(=O)CC(C)n1nc(C)cc1C` (stereo unspecified), the “activity change, positive = activation” value was inactive: -1.55%. `CCOC(=O)c1ccc(NC(=O)CSc2nc3c(c(=O)[nH]2)CN(Cc2ccccc2)CC3)cc1`: the “activity change, positive = activation” value is inactive: -25.5%.

As for `COc1ccccc1Nc1ncc2c(n1)CCN(Cc1ccc(C)s1)C2`, the “activity change, positive = activation” value is inactive: 7.2%.

`Cc1cc(F)ccc1NC(=O)CCS(=O)(=O)c1cc2c(cc1C)NC(=O)CO2`: the “activity change, positive = activation” value is inactive: -15.9%.

On to `COc1ccc(OC)c(CCNC(=O)CCCn2c(=O)c3cccn3c3ccc(F)cc32)c1`, for which the “activity change, positive = activation” value was inactive: -1.44%. Regarding `COc1ccc(-n2nc3c(N4CCC(C(=O)NCc5ccccc5C)CC4)nnc(C)c3c2C)cc1`, the “activity change, positive = activation” value is inactive: -30.7%. On to `CCOC(=O)N1CCC(NC(=O)c2c(C)nn(-c3cccc(C)c3)c2-n2cccc2)CC1`, for which the “activity change, positive = activation” value was inactive: -19.8%.

In the case of `Cc1ccc2c(=O)c(C(=O)c3cccc(Cl)c3)cn(CC(=O)NC3CCCCC3)c2n1`, the “activity change, positive = activation” value is inactive: -20.2%.
